The values below come from patent publication US20090186915A1, “Compositions and methods for treatment of glioblastoma, gliosarcoma, NSCLC, and head and neck cancer” (Unibioscreen S. A., priority 2006, published 2009).

The test deals with PC-3 Human Prostate Cancer Cells. Nature of the test: Affymetrix whole genome microarray, gene targets. As to conditions: 1 μM one time a day during five consecutive days. As for the experimental part:
We performed a first experiment of evaluation of gene targets by means of Affymetrix whole genome microarray using human PC-3 cancer cells grown in vitro and treated with the compound of the invention (N-{2-[2-(dimethylamino)ethyl]-1,3-dioxo-2,3-dihydro-1H-benzo[de]isoquinolin-5-yl}urea) either one time at 1 μM or 10 μM, or 5 times a week (one time a day during five consecutive days) at 1 μM (Full genome analyses were performed at the VIB MicroArray Facility (UZ Gasthuisberg, Catholic University of Leuven, Belgium) using Affymetrix Human Genome U133 set Plus 2.0 (High Wycombe, United Kingdom). […] The second set of genes targeted by this compound belongs to a category of genes labeled “amino acid metabolism” (Table 5).
PC-3 prostate cancer cells were either left untreated (control) or treated with UNBS5162 at 1) 1, 2) 10, or 3) 1 μM once a day for 5 consecutive days (with a washout process and renewal of culture medium before each new addition of compound, i.e., “5×1” μM). […]
In addition to R, an open-source software environment for statistical computing, a set of functions called BioConductor was used for the analysis and comprehension of the genomic data. […] The background correction, expression quantification and normalization were performed using Robust Multichip Analysis. […]

In the case of `CN(C)CCN1C(=O)c2cccc3cc(NC(N)=O)cc(c23)C1=O` [UNBS5162, N-{2-[2-(dimethylamino)ethyl]-1,3-dioxo-2,3-dihydro-1H-benzo[de]isoquinolin-5-yl}urea], the “mRNA levels of E2F-1 (Affymetrix)” value is reported as “decreased by two times”.
